# Some of the results follow.
# B1: B725 (Bifidobacterium sp) (protein)
# chain: MNNTTRAVIATAAIGALLIPLAGCGNTTTSSGKTELTVWSWDASIDRAAKSFMKANPDITVKVSNVGSTEETYTALNNAAQAGSGLPDVTLIEYLAIPQFVHSDTLMDLSKVYNTAKLKDTFTPGTWNSVNINGGLYAMPADSGPMAYFYDKDVFDKAGISEPPTTWDEFYEDAKKIRATGSYITSDSGDAGLFNAMMWAMGGHAYKLNDDKLTINIAKDKGAQRFMDLWQKMRDEDLIDVHTKTWTDDWMKSLGDGSIASLISGAWMANNLLQGVPQATGKFRVALLPTIDGTPINGEYGGSGLAITKKIPDGKLDAAKKFVEYVTTNDEGIDARVSNGSFPATTKTLNQKDFLAKTTLRNTDGSDNEFFGGQKYNEIFSQAAKDVTGKWEFLPFEPYARSVYNDNMGSFFAGKTSFRTAADNWQKALKDYAKDQGFTVQ
# Legend:
# Assay in all cases: glycan array binding signal (z-score within array); higher = stronger binding
# Settings in all cases: glycan notation: IUPAC condensed, linker removed
# [1] = biological target: GlcNAc(b1-2)[GlcNAc(b1-4)]Man(a1-3)[GlcNAc(b1-4)][GlcNAc(b1-2)[GlcNAc(b1-6)]Man(a1-6)]Man(b1-4)GlcNAc(b1-4)GlcNAc
# In short: (§1)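 The binding signal is a Z-score computed within each array. Data were drawn from 3228 arrays in the Consortium for Functional Glycomics database, restricted to those with a known protein sequence. Scores were averaged over arrays of the same protein sequence at different concentrations or buffers, and over linkers, and negative values can be taken as non-binding.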
# [2] = biological target: GlcNAc(b1-2)[GlcNAc(b1-4)]Man(a1-3)[GlcNAc(b1-4)][GlcNAc(b1-2)[GlcNAc(b1-6)]Man(a1-6)]Man(b1-4)GlcNAc(b1-4)[Fuc(a1-6)]GlcNAc
# In short: as §1
# [3] = biological target: GlcNAc(b1-2)[GlcNAc(b1-6)]Man(a1-6)[GlcNAc(b1-2)Man(a1-3)]Man(b1-4)GlcNAc(b1-4)GlcNAc
# In short: as §1
# [4] = biological target: GlcNAc(b1-2)[GlcNAc(b1-6)]Man(a1-6)[GlcNAc(b1-2)Man(a1-3)]Man(b1-4)GlcNAc(b1-4)[Fuc(a1-6)]GlcNAc
# In short: as §1
# [5] = biological target: GlcNAc(b1-2)[GlcNAc(b1-6)]Man(a1-6)[GlcNAc(b1-4)][GlcNAc(b1-2)Man(a1-3)]Man(b1-4)GlcNAc(b1-4)GlcNAc
# In short: as §1
# [6] = biological target: GlcNAc(b1-3)Fuc
# In short: as §1
# [7] = biological target: GlcNAc(b1-3)Gal
# In short: as §1
# [8] = biological target: GlcNAc(b1-3)Gal(b1-3)GalNAc
# In short: as §1
# [9] = biological target: GlcNAc(b1-3)Gal(b1-4)Glc
# In short: as §1
# [10] = biological target: GlcNAc(b1-3)Gal(b1-4)GlcNAc
# In short: as §1
# [11] = biological target: GlcNAc(b1-3)Gal(b1-4)GlcNAc(b1-2)Man(a1-3)[GlcNAc(b1-3)Gal(b1-4)GlcNAc(b1-2)Man(a1-6)]Man(b1-4)GlcNAc(b1-4)GlcNAc
# In short: as §1
# [12] = biological target: GlcNAc(b1-3)Gal(b1-4)GlcNAc(b1-2)Man(a1-3)[GlcNAc(b1-3)Gal(b1-4)GlcNAc(b1-2)Man(a1-6)]Man(b1-4)GlcNAc(b1-4)[Fuc(a1-6)]GlcNAc
# In short: as §1
# [13] = biological target: GlcNAc(b1-3)Gal(b1-4)GlcNAc(b1-2)[GlcNAc(b1-3)Gal(b1-4)GlcNAc(b1-6)]Man(a1-6)[GlcNAc(b1-3)Gal(b1-4)GlcNAc(b1-2)Man(a1-3)]Man(b1-4)GlcNAc(b1-4)GlcNAc
# In short: as §1
# [14] = biological target: GlcNAc(b1-3)Gal(b1-4)GlcNAc(b1-3)Gal(b1-4)GlcNAc
# In short: as §1
# [15] = biological target: GlcNAc(b1-3)Gal(b1-4)GlcNAc(b1-3)Gal(b1-4)GlcNAc(b1-2)Man(a1-3)[GlcNAc(b1-3)Gal(b1-4)GlcNAc(b1-3)Gal(b1-4)GlcNAc(b1-2)Man(a1-6)]Man(b1-4)GlcNAc(b1-4)GlcNAc
# In short: as §1
# [16] = biological target: GlcNAc(b1-3)Gal(b1-4)GlcNAc(b1-3)Gal(b1-4)GlcNAc(b1-2)Man(a1-3)[GlcNAc(b1-3)Gal(b1-4)GlcNAc(b1-3)Gal(b1-4)GlcNAc(b1-2)Man(a1-6)]Man(b1-4)GlcNAc(b1-4)[Fuc(a1-6)]GlcNAc
# In short: as §1
# [17] = biological target: GlcNAc(b1-3)Gal(b1-4)GlcNAc(b1-3)Gal(b1-4)GlcNAc(b1-2)[GlcNAc(b1-3)Gal(b1-4)GlcNAc(b1-3)Gal(b1-4)GlcNAc(b1-6)]Man(a1-6)[GlcNAc(b1-3)Gal(b1-4)GlcNAc(b1-3)Gal(b1-4)GlcNAc(b1-2)Man(a1-3)]Man(b1-4)GlcNAc(b1-4)[Fuc(a1-6)]GlcNAc
# In short: as §1
# [18] = biological target: GlcNAc(b1-3)Gal(b1-4)GlcNAc(b1-3)Gal(b1-4)GlcNAc(b1-3)Gal(b1-4)GlcNAc(b1-2)Man(a1-3)[GlcNAc(b1-3)Gal(b1-4)GlcNAc(b1-3)Gal(b1-4)GlcNAc(b1-3)Gal(b1-4)GlcNAc(b1-2)Man(a1-6)]Man(b1-4)GlcNAc(b1-4)GlcNAc
# In short: as §1
# [19] = biological target: GlcNAc(b1-3)Gal(b1-4)GlcNAc(b1-3)Gal(b1-4)GlcNAc(b1-3)Gal(b1-4)GlcNAc(b1-2)Man(a1-3)[GlcNAc(b1-3)Gal(b1-4)GlcNAc(b1-3)Gal(b1-4)GlcNAc(b1-3)Gal(b1-4)GlcNAc(b1-2)Man(a1-6)]Man(b1-4)GlcNAc(b1-4)[Fuc(a1-6)]GlcNAc
# In short: as §1
# [20] = biological target: GlcNAc(b1-3)Gal(b1-4)GlcNAc(b1-3)Gal(b1-4)GlcNAc(b1-3)Gal(b1-4)GlcNAc(b1-2)[GlcNAc(b1-3)Gal(b1-4)GlcNAc(b1-3)Gal(b1-4)GlcNAc(b1-3)Gal(b1-4)GlcNAc(b1-6)]Man(a1-6)[GlcNAc(b1-3)Gal(b1-4)GlcNAc(b1-3)Gal(b1-4)GlcNAc(b1-3)Gal(b1-4)GlcNAc(b1-2)Man(a1-3)]Man(b1-4)GlcNAc(b1-4)[Fuc(a1-6)]GlcNAc
# In short: as §1
# [21] = biological target: GlcNAc(b1-3)Gal(b1-4)GlcNAc(b1-3)Gal(b1-4)GlcNAc(b1-3)Gal(b1-4)GlcNAc(b1-3)Gal(b1-4)GlcNAc(b1-2)Man(a1-3)[GlcNAc(b1-3)Gal(b1-4)GlcNAc(b1-3)Gal(b1-4)GlcNAc(b1-3)Gal(b1-4)GlcNAc(b1-3)Gal(b1-4)GlcNAc(b1-2)Man(a1-6)]Man(b1-4)GlcNAc(b1-4)GlcNAc
# In short: as §1
# [22] = biological target: GlcNAc(b1-3)Gal(b1-4)GlcNAc(b1-3)Gal(b1-4)GlcNAc(b1-3)Gal(b1-4)GlcNAc(b1-3)Gal(b1-4)GlcNAc(b1-2)Man(a1-3)[GlcNAc(b1-3)Gal(b1-4)GlcNAc(b1-3)Gal(b1-4)GlcNAc(b1-3)Gal(b1-4)GlcNAc(b1-3)Gal(b1-4)GlcNAc(b1-2)Man(a1-6)]Man(b1-4)GlcNAc(b1-4)[Fuc(a1-6)]GlcNAc
# In short: as §1
# [23] = biological target: GlcNAc(b1-3)Gal(b1-4)GlcNAc(b1-3)Gal(b1-4)GlcNAc(b1-3)Gal(b1-4)GlcNAc(b1-3)Gal(b1-4)GlcNAc(b1-2)[GlcNAc(b1-3)Gal(b1-4)GlcNAc(b1-3)Gal(b1-4)GlcNAc(b1-3)Gal(b1-4)GlcNAc(b1-3)Gal(b1-4)GlcNAc(b1-6)]Man(a1-6)[GlcNAc(b1-3)Gal(b1-4)GlcNAc(b1-3)Gal(b1-4)GlcNAc(b1-3)Gal(b1-4)GlcNAc(b1-3)Gal(b1-4)GlcNAc(b1-2)Man(a1-3)]Man(b1-4)GlcNAc(b1-4)[Fuc(a1-6)]GlcNAc
# In short: as §1
# [24] = biological target: GlcNAc(b1-3)Gal(b1-4)GlcNAc(b1-3)Gal(b1-4)GlcNAc(b1-3)GalNAc
# In short: as §1
# [25] = biological target: GlcNAc(b1-3)Gal(b1-4)GlcNAc(b1-3)GalNAc
# In short: as §1
# [26] = biological target: GlcNAc(b1-3)Gal(b1-4)GlcNAc(b1-3)[GlcNAc(b1-3)Gal(b1-4)GlcNAc(b1-3)]GalNAc
# In short: as §1
# [27] = biological target: GlcNAc(b1-3)Gal(b1-4)GlcNAc(b1-6)[Gal(b1-3)]GalNAc
# In short: as §1
# [28] = biological target: GlcNAc(b1-3)Gal(b1-4)GlcNAc(b1-6)[GlcNAc(b1-3)Gal(b1-3)]GalNAc
# In short: as §1
# [29] = biological target: GlcNAc(b1-3)Gal(b1-4)GlcNAc(b1-6)[GlcNAc(b1-3)]Gal(b1-4)GlcNAc
# In short: as §1
# [30] = biological target: GlcNAc(b1-3)GalNAc
# In short: as §1
# [31] = biological target: GlcNAc(b1-3)Man
# In short: as §1
# [32] = biological target: GlcNAc(b1-3)[GlcNAc(b1-4)][GlcNAc(b1-6)]GlcNAc
# In short: as §1
# [33] = biological target: GlcNAc(b1-3)[GlcNAc(b1-6)]Gal(b1-4)GlcNAc
# In short: as §1
# [34] = biological target: GlcNAc(b1-3)[GlcNAc(b1-6)]GalNAc
# In short: as §1
# [35] = biological target: GlcNAc(b1-4)Gal(b1-4)GlcNAc
# In short: as §1
# [36] = biological target: GlcNAc(b1-4)GlcNAc
# In short: as §1
# [37] = biological target: GlcNAc(b1-4)GlcNAc(b1-4)GlcNAc
# In short: as §1
# [38] = biological target: GlcNAc(b1-4)GlcNAc(b1-4)GlcNAc(b1-4)GlcNAc(b1-4)GlcNAc
# In short: as §1
binder,measurement,setting,value
B1,glycan array binding signal (z-score),[1],-0.225
same,glycan array binding signal (z-score),[2],-0.22
same,glycan array binding signal (z-score),[3],-0.222
same,glycan array binding signal (z-score),[4],-0.211
same,glycan array binding signal (z-score),[5],-0.24
same,glycan array binding signal (z-score),[6],-0.207
same,glycan array binding signal (z-score),[7],-0.227
same,glycan array binding signal (z-score),[8],-0.202
same,glycan array binding signal (z-score),[9],-0.222
same,glycan array binding signal (z-score),[10],-0.216
same,glycan array binding signal (z-score),[11],-0.199
same,glycan array binding signal (z-score),[12],-0.131
same,glycan array binding signal (z-score),[13],-0.2
same,glycan array binding signal (z-score),[14],0.622
same,glycan array binding signal (z-score),[15],-0.178
same,glycan array binding signal (z-score),[16],-0.216
same,glycan array binding signal (z-score),[17],-0.203
same,glycan array binding signal (z-score),[18],-0.204
same,glycan array binding signal (z-score),[19],-0.181
same,glycan array binding signal (z-score),[20],-0.196
same,glycan array binding signal (z-score),[21],-0.203
same,glycan array binding signal (z-score),[22],0.138
same,glycan array binding signal (z-score),[23],0.704
same,glycan array binding signal (z-score),[24],-0.19
same,glycan array binding signal (z-score),[25],-0.199
same,glycan array binding signal (z-score),[26],-0.204
same,glycan array binding signal (z-score),[27],-0.172
same,glycan array binding signal (z-score),[28],-0.208
same,glycan array binding signal (z-score),[29],-0.204
same,glycan array binding signal (z-score),[30],-0.221
same,glycan array binding signal (z-score),[31],-0.204
same,glycan array binding signal (z-score),[32],-0.212
same,glycan array binding signal (z-score),[33],-0.22
same,glycan array binding signal (z-score),[34],-0.231
same,glycan array binding signal (z-score),[35],-0.222
same,glycan array binding signal (z-score),[36],-0.209
same,glycan array binding signal (z-score),[37],-0.22
same,glycan array binding signal (z-score),[38],-0.213
